Measured values reported in PubChem BioAssay AID1345083 (National Center for Advancing Translational Sciences (NCATS), 2018).
Screen size: about 94,000 compounds; about 6,200 (6.6%) were called active. The shares of active, inactive and inconclusive entries below differ from those in the screen. The call rests on the fitted dose curve; in most records, active means well fitted inhibition curve with a large enough effect; inconclusive means small, poorly fitted or top-dose-only effect; inactive means flat fitted curve, though single readings scatter. A potency beside an inconclusive call is a rough fit, not a confirmed value.

Assay: Cytotoxic Profiling in HEK 293 Cell Line of Diverse Libraries Using Quantitative High-Throughput Screening; further: nearly all actives have a fitted effect of over 60% in size
Conditions: HEK 293 viability, ATP luminescence (CellTiter-Glo), 48-72 h; series mostly up to 115 µM
Method in brief: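 HEK 293 cells seeded at 250 cells/well were exposed to compound for 48 or 72 hr at 37 degree Celsius. Viability taken as ATP content by CellTiter-Glo luminescence.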
Potency means the concentration at half of the fitted maximal effect; tags describe the fitted curve by direction and shape.

SMILES | Potency
CC/C=C(\C)CN1CCC2(CC1)Cc1ccccc1CNC2=O | inactive
Fc1ccc(C2Cn3nnc(-c4nc(-c5cccc(C(F)(F)F)c5)no4)c3CO2)cc1 (stereo unspecified) | inactive
O=C1NCc2ccccc2CC12CCN(Cc1ccc(F)cc1)C2 (stereo unspecified) | inconclusive: 112 µM [inhibitor, single point]
CCC1c2nccn2CCCN1C(=O)c1ccc(OC)nc1OC (stereo unspecified) | inactive
Cc1ccc(C(=O)N2CCC(C(=O)N3CCC(N4CCCC4=O)CC3)CC2)cc1 | inactive
COc1ccc(OCc2cc(C(=O)N3CCN(CC4CC4)CC3)n[nH]2)c(Cl)c1 | inconclusive: 89.1 µM [inhibitor, single point]
CCC(=O)NCc1cc2c(nc1OC)CN(C1CCCC1)C2=O | inactive
CCn1cc(Cl)c(C(=O)N2CCc3c(nc4cc(-c5ccccc5)[nH]n4c3=O)C2)n1 | inactive
Cc1ccc(S(=O)(=O)N[C@H]2CO[C@H]3[C@@H]2OC[C@@H]3Nc2nccc(C(C)(C)C)n2)cc1 | active: 25.1 µM
Cn1nccc1OCc1cn2c(=O)n(C)cc(-c3cccc(OCc4ccccc4)c3)c2n1 | inconclusive: 7.94 µM [inhibitor, full curve, poor fit]
O=C(NCc1ccco1)c1ccc(-c2ccc(N3CCCCCC3)nc2)cc1 | active: 39.8 µM
COc1ccc(C(=O)N[C@@H]2CCC[C@@H]2C(=O)NCc2ccccc2C(F)(F)F)cc1 | inactive
O=C(Nc1nccs1)[C@@H]1C[C@@H](c2ccc(F)cc2)N([S+](=O)([O-])c2ccccc2)C1 | inconclusive: 56.2 µM [inhibitor, full curve]
CCN(CC)C(=O)N1CCCC(Cc2ncc(C)n2Cc2ccccc2)C1 (stereo unspecified) | inconclusive: 31.6 µM [inhibitor, partial curve, poor fit]
Cc1noc(C)c1-c1cc2cc(CN(C)C)oc2c(-c2ccc([S+](C)(=O)[O-])cc2)n1 | inconclusive: 112 µM [inhibitor, partial curve]
Cc1ccc(-c2c(C(=O)NCc3ccc(F)cc3)nc3sccn23)cc1 | inconclusive: 56.2 µM [inhibitor, partial curve, poor fit]
COc1ccc(OC)c([S+](=O)([O-])c2nnn3c2nc(NCc2ccc(F)cc2)c2ccccc23)c1 | inconclusive: 89.1 µM [inhibitor, single point]
COc1ccccc1C(=O)N1CCC(C(=O)N2CCC(N3CCOC3=O)CC2)CC1 | inactive
O=C(NCCCc1ccccc1)c1n[nH]c2c1CN(C(=O)c1ccc(F)cc1F)CC2 | active: 79.4 µM
CN1CC[C@H](N(Cc2ccccc2)C(=O)CC2CCCC2)C[C@H](O)C1 | inactive
Cc1nc(CNC(=O)CC2C(=O)NCCN2Cc2ccccn2)n[nH]1 (stereo unspecified) | inactive
CCc1ccc(S(=O)(=O)N2[C@@H]3CC[C@H]2CC(NC(=O)c2ccc(F)cc2)C3)cc1 (stereo partly specified) | inconclusive: 89.1 µM [inhibitor, partial curve, poor fit]

SMILES | Potency
CC(NC(=O)Cc1ccc(N(Cc2ccccc2)C(=O)c2ccco2)cc1)c1ccccc1 (stereo unspecified) | inconclusive: 100 µM [inhibitor, single point]
CC(=O)NC[C@@H]1C=C(C)[C@H](CC(=O)NCc2ccc(F)cc2)C[C@H]1C(C)C | inconclusive: 126 µM [inhibitor, single point]
O=C(NCc1ccccn1)c1nc2sccn2c1-c1ccc(C(F)(F)F)cc1 | inconclusive: 50.1 µM [inhibitor, partial curve, poor fit]
CCOc1ccccc1C(=O)NC1CCN(c2cc(-c3ccc(OC)cc3)[nH]n2)CC1 | inconclusive: 50.1 µM [inhibitor, partial curve, poor fit]
O=C(NC1CCCCCC1)C1CCN(c2ccnc3ccnn23)CC1 | inconclusive: 7.94 µM [inhibitor, full curve, poor fit]
CCc1ccc(C(=O)Nc2ccc3c(N4CCOCC4)ncnc3c2)cc1 | inconclusive: 8.91 µM [inhibitor, full curve, poor fit]
COc1ccccc1-c1cc(-c2ccncc2)c2cncn2c1 | active: 89.1 µM
CNC(=O)[C@@H]1C[C@@H](O)CN1C1CCN(C(=O)c2cccc(OC)c2)CC1 | inactive
CCOc1ccc(C(=O)N2CCCC(n3cc(-c4nc(C(C)C)no4)nn3)C2)cc1 (stereo unspecified) | inconclusive: 79.4 µM [inhibitor, single point]
Fc1ccc(Nc2nc(-c3ccccc3)no2)cc1 | inconclusive: 28.2 µM [inhibitor, full curve, poor fit]
COc1cccc(CC(=O)N2CCCCCNC(=O)[C@@H]3CCCC[C@@H]32)c1 | inactive
CNC(=O)c1cc(C2CC2)nc2c1c(C1CCN(C(=O)Nc3ccc(Cl)cc3)C1)nn2C (stereo unspecified) | inconclusive: 79.4 µM [inhibitor, partial curve, poor fit]
Cc1ccc(CNC(=O)N2CC(Oc3cccc(-c4nc(C)no4)c3)C2)cc1 | active: 44.7 µM
O=C(C1CCC1)N1C[C@@H]2CC[C@H](C1)N(C(=O)Nc1ccc(F)c(F)c1)C2 | inconclusive: 89.1 µM [inhibitor, partial curve, poor fit]
COc1ccc(NC(=O)C2CCN(c3cc(C(F)(F)F)ncn3)CC2)cc1OC | inconclusive: 79.4 µM [inhibitor, single point]
COc1cccc(-c2cccc(C(=O)N3CCCC3C(=O)NCCc3ccccc3)c2)c1 (stereo unspecified) | inconclusive: 50.1 µM [inhibitor, partial curve, poor fit]
Cn1ncc2c(C(=O)NCc3ccc(F)c(F)c3)cc(-c3cccc(F)c3)nc21 | active: 39.8 µM
Cc1ccsc1C(=O)N1CCC2(CC1)CC(N(Cc1ccccc1)C1CC1)CCO2 (stereo unspecified) | active: 39.8 µM
Cc1ccc(C)c(CN2C(=O)NC3(CCCN(C(=O)c4ccc(C)c(F)c4)C3)C2=O)c1 (stereo unspecified) | inconclusive: 44.7 µM [inhibitor, partial curve, poor fit]
CCN1Cc2cc(OC)ccc2N(C(C)=O)CCC1=O | inactive
C=CCCC(CN1CCOCC1)Oc1cc(C)nc(-c2ccccc2)n1 (stereo unspecified) | inconclusive: 28.2 µM [inhibitor, partial curve]
COc1cccc(CC2(CO)CCCN(c3ccc(-c4nccn4C)nn3)C2)c1 (stereo unspecified) | active: 20 µM

SMILES | Potency
c1cncc(-c2nc(CCNc3ncncn3)cs2)c1 | inactive
Cc1nnc2ccc(NCc3ccc(F)cc3)nn12 | inconclusive: 56.2 µM [inhibitor, partial curve, poor fit]
Cc1nc2cc(N3CCC(C(=O)O)CC3)cnc2nc1C | inconclusive: 31.6 µM [inhibitor, partial curve]
Clc1ccc(CNC2(Cc3cc(COc4ccccc4)on3)COC2)cc1 | active: 79.4 µM
O=C(c1cc(F)ccc1F)N1CCN(C(=O)c2nnn3c2COC(c2ccc(Cl)cc2)C3)CC1 (stereo unspecified) | active: 35.5 µM
Cc1cccc(NC(=O)CN2C(=O)NC3(CCCCC3)C2=O)c1 | inactive
O=C(COc1ccc(Cl)cc1)N1CCN(c2cc(-c3cccs3)[nH]n2)CC1 | inconclusive: 50.1 µM [inhibitor, partial curve, poor fit]
CC(C)N1C(=O)C2(CCCCC2)C1C(=O)N1CCN(c2ccccn2)CC1 (stereo unspecified) | inactive
COc1ccc(C(=O)N2CCC3(CC2)NCCc2c3[nH]c3ccccc23)c(OC)n1 | inconclusive: 56.2 µM [inhibitor, partial curve, poor fit]
O=C(C1CCCC1)N1CCC2(CC1)CC(CO)N(C(=O)c1ccccc1)C2 (stereo unspecified) | inconclusive: 79.4 µM [inhibitor, partial curve, poor fit]
CNC(=O)c1cc(C2CC2)nc2c1c(C1CCN([S+](=O)([O-])c3cccc(C(F)(F)F)c3)C1)nn2C (stereo unspecified) | inconclusive: 79.4 µM [inhibitor, single point]
Cc1noc(-c2nc(-c3ccc(OC(C)C)cc3)no2)n1 | inconclusive: 35.5 µM [inhibitor, partial curve]
CCOC(=O)C1CCCN(C(=O)c2nc3sccn3c2-c2cccc(C#N)c2)C1 (stereo unspecified) | inconclusive: 79.4 µM [inhibitor, partial curve, poor fit]
COC1CN(c2ccc(C)cc2)C12CCN(C(=O)COc1ccc(F)cc1)CC2 (stereo unspecified) | inconclusive: 79.4 µM [inhibitor, partial curve, poor fit]
C=CCn1cc2c3c(cccc31)[C@H](CC(C)C)N[C@H](C(=O)NCCOC)C2 | active: 56.2 µM
COc1ccc(CN2CCCCC23Cc2ccccc2CNC3=O)cc1F (stereo unspecified) | inconclusive: 56.2 µM [inhibitor, partial curve, poor fit]
Cc1nn(-c2ccccc2)c2c1C(C(C)C)N(C1CN(C(=O)Cc3cccc(Cl)c3)C1)C2=O (stereo unspecified) | active: 25.1 µM
C#CCN[C@H]1C[C@@H]2c3[nH]c4ccccc4c3C[C@@H](C(=O)OC)N2[C@H](c2ccc(F)cc2)C1 | active: 28.2 µM
COc1ccccc1Cn1c(=O)c(C(=O)N2CCN(C(=O)c3ccccc3F)CC2)nc2cccnc21 | inactive
COc1ccccc1CN1CCC2(CC1)OC(=O)N(Cc1csc(C)n1)C2(C)c1ccccc1 (stereo unspecified) | inconclusive: 79.4 µM [inhibitor, partial curve, poor fit]
CCCNC(=O)[C@@H]1Cc2cn(Cc3cc(C)on3)c3cccc(c23)[C@H](CC(C)C)N1 | inconclusive: 70.8 µM [inhibitor, partial curve, poor fit]
Cc1ccccc1N(C)C1CN(Cc2cccc3ccccc23)C1 | inconclusive: 56.2 µM [inhibitor, partial curve, poor fit]
